Results as given in PubChem BioAssay AID1814 (Broad Institute, 2009).
Among all 300,000 compounds or so, about 22,000 (7.3%) were called active. The inconclusive results got no clear call from the source; some entries with a clear call stand among them for comparison. Cut-off read from the data, not from the text of the source: active = activity score below about -60%; inconclusive = mostly about -28% to -61%; inactive = positive scores.

test: Activators via SNCA 5'UTR binding, MLPCN (AID 1814); conditions: alpha-synuclein 5'UTR reporter, activators screen; hits give low values; tested at 7.5 µM

Row | Structure (SMILES) | activity score
1 | c1ccc(C2Nc3ccccc3-c3nc4ccccc4n32)nc1 (stereo unspecified) | active: -74%
2 | CCC(C)Nc1nc(N)c([N+](=O)[O-])c(NC2CCCCC2)n1 (stereo unspecified) | inactive: 102%
3 | CC(C)N1CCC(N2CCN(Cc3ccc(-c4ccc(Cl)cc4)o3)CC2CCO)CC1 (stereo unspecified) | inconclusive: -57.9%
4 | CCC(C)NS(=O)(=O)c1ccc(NC(=O)C(Sc2ccccc2)c2ccccc2)cc1 (stereo unspecified) | inactive: 55.9%
5 | CCN(C(=S)Nc1cccnc1)c1ccccc1 | inconclusive: -34.6%
6 | COC(=O)c1ccc2c(c1)C(C)(C)C(/C=C/c1ccccc1O)=[N+]2C | inactive: 118%
7 | Cc1nc(-n2[nH]c3c(c2=O)CCCC3)[nH]c(=O)c1Cc1ccccc1 | inactive: 89.8%
8 | COc1cc(/C=N/Nc2ccc(C(F)(F)F)cn2)ccc1O | active: -147%
9 | CCCC(=O)Nc1ccc2oc(-c3ccncc3)nc2c1 | inconclusive: -41.6%
10 | COc1ccc(-c2cc3nc(CCl)[nH]c(=O)c3s2)cc1 | inactive: 71.2%
11 | COc1ccc(-n2c(C)cc(C(=O)CN3CCC(C)CC3)c2C)cc1 | inconclusive: -49.3%
12 | O=C(CCNS(=O)(=O)c1cccs1)N1CCc2ccccc2C1 | inconclusive: -59.2%
13 | COC1=C(Nc2ccc(O)cc2)C(=O)c2ccccc2C1=O | active: -110%
14 | CC(=O)N(C)c1ccc(NC(=O)Nc2cccc3ccccc23)cc1 | active: -70.7%
15 | Cc1ccc(-c2cc3nc(-c4ccc(Br)cc4)cc(N)n3n2)cc1 | inconclusive: -39.2%
16 | Cc1cccc(N(C(=O)Nc2ccc(Cl)cc2)C2=NCC(C)S2)n1 (stereo unspecified) | inconclusive: -59.9%
17 | CCN(C(=O)COC(=O)/C=C/c1cnc2ccccc2n1)C1CCS(=O)(=O)C1 (stereo unspecified) | inconclusive: -52.3%
18 | Cc1cc(NC(=O)CSc2nc3c(C)ccc(C)c3cc2C#N)no1 | inconclusive: -60.1%
19 | O=C(CC1(O)C(=O)N(C/C=C/c2ccccc2)c2ccccc21)c1ccccn1 (stereo unspecified) | inconclusive: -52.6%
20 | Cc1ccccc1OCc1nc(-c2ccc(NC(=O)c3cccs3)cc2)no1 | active: -277%
21 | CN(C)c1ccc(/C=N/NC(=O)c2cnc3ccccc3c2)cc1 | inconclusive: -43.8%
22 | COc1ccc(N/C=C(\C#N)c2nc3ccccc3n2C)c(OC)c1 | inconclusive: -57.2%
23 | COC(=O)c1sccc1NC(=O)Nc1ccc(Cl)c(Cl)c1 | inconclusive: -61.3%

Row | Structure (SMILES) | activity score
24 | Cc1ccc(-c2ccc(/C=N/NC(=O)CN3CCCC3)o2)cc1Cl | inconclusive: -46.3%
25 | COc1cc(NC(=O)c2noc3c2CCCC3)c(OC)cc1Cl | inconclusive: -49.1%
26 | CC(C)(C)c1ccccc1NC(=O)c1c(O)c2cccc3c2n(c1=O)CC3 | inconclusive: -48.4%
27 | CC(=O)Nc1ccc(S(=O)(=O)N(Cc2cc3ccc(C)cc3[nH]c2=O)CC2CCCO2)cc1 (stereo unspecified) | inactive: 82.4%
28 | COc1ccc(Nc2ncc(C#N)c(N)n2)c(OC)c1 | inconclusive: -55.8%
29 | Cc1ccccc1NC(=O)c1cnc2ccccn2c1=O | inactive: 61.8%
30 | CC1CCCN(C(=O)COC(=O)c2ccc3[nH]c4c(c3c2)CCCC4)C1 (stereo unspecified) | inconclusive: -59.3%
31 | N/C(=N\OC(=O)CSc1ccccc1)c1ccccn1 | active: -88.2%
32 | CCOC(=O)c1cc(-c2cc(OC)c(OC)c(OC)c2)nc2c1c(=O)[nH]c(=O)n2Cc1ccccc1 | inconclusive: -60.1%
33 | CN(C)c1ccc(-c2nn3c(-c4ccccc4Cl)nnc3s2)cc1 | inactive: 82.3%
34 | CC(=O)c1ccc(OCc2cc(=O)n3ccsc3n2)cc1 | active: -95.3%
35 | CN(CC(=O)Nc1cccc(F)c1)C(=O)c1ccc(COc2ccccc2)cc1 | inconclusive: -54.9%
36 | Cc1ccc(S(=O)(=O)CC(C)N2CCOCC2)c(S(=O)(=O)CC(C)N2CCOCC2)c1 (stereo unspecified) | inconclusive: -49.3%
37 | Cc1cccc(Nc2nc(-c3ccncc3)cs2)c1 | inconclusive: -61.1%
38 | CC(=O)c1c(C)nc(Nc2nc3ccccc3s2)nc1C | active: -82.8%
39 | CC(C)C(=O)Nc1sc2c(c1-c1nc3ccccc3[nH]1)CCCC2 | inconclusive: -41.5%
40 | Cc1ccc(SCCCCN2CCNCC2)cc1 | inconclusive: -57.1%
41 | COC(=O)CC1C(=O)NC2CCCCC2N1C(=O)CCl (stereo unspecified) | inconclusive: -32.3%
42 | O=C(NCC(=O)N1CCCCC1)c1ccc2ccccc2c1 | inconclusive: -41.4%
43 | CCCCC(=O)Nc1nc2c(OC)ccc(OC)c2s1 | inconclusive: -53.7%
44 | O=C(Cc1cccs1)Nc1ccc(-c2nnc(-c3ccco3)o2)cc1 | inconclusive: -55.3%
45 | COc1ccc(C(=O)Cn2c(C(=O)/C=C/c3ccccc3)nc3ccccc32)cc1 | inconclusive: -55.2%
46 | COc1cccc(NC(=O)Nc2ccc3c(c2)nc(C)n3C)c1 | inconclusive: -57.5%

Row | Structure (SMILES) | activity score
47 | CCOc1ccc(C(=O)NC(=S)Nc2ccc(N3CCC(C)CC3)cc2)cc1[N+](=O)[O-] | inconclusive: -46.5%
48 | CC(=O)N/C(N)=N/c1nc2cc([N+](=O)[O-])ccc2o1 | active: -97.5%
49 | O=C(O)c1ccc2c(=O)n3c(nc2c1)/C(=C/c1cccc(Cl)c1Cl)CC3 | inconclusive: -52.3%
50 | COc1ccc(/C(N)=N/OC(=O)CC2CCCCC2)cc1OC | inconclusive: -60.4%
51 | O=C(NNC(=S)Nc1ccc(F)cc1)c1ccccc1OC(F)F | active: -62.7%
52 | CCCCOC(=O)c1ccc(NC(=O)c2ccccc2OC)cc1 | inconclusive: -51.6%
53 | C/C(=N\NC(=O)c1ccc(-c2ccccc2)cc1)c1ccco1 | inconclusive: -53%
54 | COc1ccc2nc3cc(Cl)ccc3c(Nc3cc(CN4CCCC4)c(O)c(CN4CCCC4)c3)c2n1 | inactive: 104%
55 | Cc1ccc(C(=O)Nc2cccc(C(F)(F)F)c2)cc1NC(=O)c1cnnc2ccccc12 | inactive: 64.2%
56 | COc1ccc(NCC(=O)N2CCCC2)cc1Cl | inconclusive: -43.7%
57 | COc1ccc(C(=O)Nc2ccc3[nH]ccc3c2)cc1 | inactive: 66.4%
58 | COc1ccc(N2CCN(C(C)=C3C(=O)c4ccccc4C3=O)CC2)cc1 | inconclusive: -48.6%
59 | N#Cc1ccc(C(=O)Nc2cccc3cccnc23)c(F)c1 | inconclusive: -45%
60 | CCOc1ccc(CNCc2ccccc2Cl)cc1 | inconclusive: -52.5%
61 | Cc1ccc(/C=N/NC(=O)c2sccc2OCc2ccc(F)cc2)cc1 | inconclusive: -54.8%
62 | OCC1(Cc2ccccc2)CCCN(Cc2cn[nH]c2-c2ccccc2)C1 (stereo unspecified) | inconclusive: -50.9%
63 | C=CCOc1ccc2c(c1)C(=NO)c1cc(OCC=C)ccc1-2 | active: -94%
64 | O=C(O)[C@H](Cc1ccccc1)N1C(=O)c2c(Cl)c(Cl)c(Cl)c(Cl)c2C1=O | inconclusive: -55.4%
65 | c1ccc(C(Cc2nc(-c3ccncc3)no2)c2ccccc2)cc1 | inconclusive: -59.5%
66 | Cc1nnc(Nc2ccccn2)c2ccccc12 | inconclusive: -46.5%
67 | COc1ccc(OC)c(N/C=C/C(=O)c2ccccc2)c1 | inactive: 82.7%
68 | C=CCn1c(Cc2c[nH]c3ccccc23)n[nH]c1=S | inconclusive: -49%
69 | N#CCCn1nc(-c2ccc(Br)cc2)cc1Nc1ccccc1NC(=O)C(F)(F)F | inconclusive: -53%

Row | Structure (SMILES) | activity score
70 | O=C(CSc1ccccn1)Nc1ccc2c(c1)C(=O)c1ccccc1C2=O | active: -68.2%
71 | COc1ccc(NC(=O)c2cc(CC(C)C)on2)cc1OC | inconclusive: -59.1%
72 | O=C(c1nn2c(C(F)(F)F)cc(-c3cccs3)nc2c1Cl)N1CCCc2ccccc21 | inactive: 77.7%
73 | CN(C)CCNc1ncnc2c1sc1nc(N3CCOCC3)c3c(c12)CC(C)(C)SC3 | inactive: 71.6%
74 | O=C(O)Cn1cc(/C=C2\SC(=O)N(c3ccccc3)C2=O)c2ccccc21 | inconclusive: -60.9%
75 | CCOc1ccc(/C=C2/Sc3ccc(C(=O)N4CCN(C(=O)c5ccco5)CC4)cc3N(C)C2=O)cc1OC | inactive: 52.7%
76 | CC(Oc1ccc(Cl)cc1Cl)c1nc(-c2ccc(NC(=O)c3cccnc3)cc2)no1 (stereo unspecified) | inactive: 91.6%
77 | COc1ccc(C(c2c(O)ccc3ccccc23)N2CCOCC2)c(OC)c1 (stereo unspecified) | inconclusive: -55.4%
78 | CCOC(=O)N1CCN(C(=O)c2ccc3nc(N4CCCCC4)sc3c2)CC1 | inconclusive: -59.9%
79 | CCc1nc(SCC(=O)c2c[nH]c3ccccc23)n[nH]1 | inconclusive: -57.1%
80 | CC(=O)c1cc2c(cc1NC(=O)CSc1nc3ccc(C)cc3[nH]1)OCO2 | inconclusive: -50.8%
81 | CC(/C=N/NC(=O)c1nnn(-c2nonc2N)c1C)=C\c1ccccc1 | inconclusive: -38.6%
82 | CCC(C)Nc1nc(-c2ccccn2)nc2ccccc12 (stereo unspecified) | inactive: 68.6%
83 | COC(=O)c1ccc(NC(=O)c2sc3nc(-c4ccccc4)cn3c2C)cc1 | inconclusive: -28.5%
84 | CC(C)CNC(=O)C(=O)N/N=C/c1cccs1 | inconclusive: -50.4%
85 | CC(=O)c1ccc(NC(=O)c2cnn3ccccc23)cc1 | inactive: 78.9%
86 | Cc1ccc(OCC(=O)N2CCCCCCC2)cc1C | inconclusive: -57.6%
87 | O=[N+]([O-])c1ccccc1S(=O)(=O)Nc1cccc(-c2ccc(N3CCOCC3)nn2)c1 | inconclusive: -54.5%
88 | O=[N+]([O-])c1ccc(O)c(/C=N/Nc2ccc(Cl)nn2)c1 | inactive: 100%
89 | Cc1nc(NC(=O)COc2ccccc2)sc1C(=O)Nc1cccc(Cl)c1 | inconclusive: -51.2%
90 | CCc1nc2c(c(=O)c3ccccc3n2C)c(=O)n1CCc1ccc(OC)cc1 | inactive: 74%
91 | COCc1nnc(NC(=O)c2cc(Cl)ccc2OC)s1 | inconclusive: -57.7%
